Several values for one entry are separate records, joined by “and”; a condition that tells them apart may be missing. Equal values may be shown once. The campaign covered roughly 110,000 compounds. About 230 (0.21%) showed an effect of 50% or more. The list shows a part of the results.
target: DPAP1 (Plasmodium falciparum, UniProt Q8IIJ9); assay: primary screen, percent inhibition; read by cleavage of a fluorogenic dipeptide substrate; higher = more effect of the substance; set-up: species or system P. falciparum D10 trophozoite lysates; single well
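Note: 30 min substrate incubation versus DMSO and 10 µM JCP410 controls.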

DPAP1, sequence (Q8IIJ9 whole entry, looked up): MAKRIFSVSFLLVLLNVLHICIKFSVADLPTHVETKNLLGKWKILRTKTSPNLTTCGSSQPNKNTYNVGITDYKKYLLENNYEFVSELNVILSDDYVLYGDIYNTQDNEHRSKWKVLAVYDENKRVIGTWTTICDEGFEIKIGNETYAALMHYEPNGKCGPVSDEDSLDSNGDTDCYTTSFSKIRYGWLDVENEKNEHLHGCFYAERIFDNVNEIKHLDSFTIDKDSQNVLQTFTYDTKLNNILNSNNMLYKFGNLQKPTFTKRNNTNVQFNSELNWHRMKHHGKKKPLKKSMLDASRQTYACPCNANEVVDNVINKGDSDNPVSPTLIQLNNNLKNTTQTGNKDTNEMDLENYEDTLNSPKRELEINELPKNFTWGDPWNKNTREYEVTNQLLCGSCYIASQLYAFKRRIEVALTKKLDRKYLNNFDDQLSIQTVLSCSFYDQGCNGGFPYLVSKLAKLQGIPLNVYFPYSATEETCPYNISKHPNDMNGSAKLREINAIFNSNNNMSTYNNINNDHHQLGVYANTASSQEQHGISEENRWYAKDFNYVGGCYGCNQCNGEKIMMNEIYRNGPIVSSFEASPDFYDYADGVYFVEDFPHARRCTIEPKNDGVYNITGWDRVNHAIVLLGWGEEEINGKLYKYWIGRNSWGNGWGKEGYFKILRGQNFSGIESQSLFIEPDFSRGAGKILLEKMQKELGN

Row | Structure (SMILES) | % Inhibition @ 10 uM
1 | O=C(/C=C/c1ccc(F)cc1)C12CC3CC(CC(C3)C1)C2 | 8.98%
2 | O=C(/C=C/c1ccc(Cl)cc1)NCCc1ccccc1 | 0.736% and 6.14%
3 | CC(C)C[C@H](Nc1ccc2ccccc2c1)C(=O)NCC#N | -6.46%
4 | Cc1nc2scc(C)n2c(=O)c1S(=O)(=O)NCC1CCN(Cc2ccc(F)cc2)CC1 | 1.99%
5 | CCCNC(=O)c1ccc2c(c1)sc1nc(-c3ccccc3)cn12 | 12.5%
6 | CCCCn1c(CN2CC(C)OC(C)C2)nc2c1c(=O)n(C)c(=O)n2C (stereo not shown) | -4.14%
7 | Cc1nccc2nc(O)c(C(=O)NC(C)CCc3ccccc3)cc12 (stereo not shown) | 5.47%
8 | CCOc1ccc(-n2c(SCc3nc(-c4ccc(Cl)cc4)no3)nnc2-c2ccncc2)cc1 | 1.25%
9 | O=C(CN(Cc1ccccc1)S(=O)(=O)c1ccc(F)cc1)NCCc1ccccc1 | -3.94%
10 | Cc1cc(=O)n2ncn(CC(C)C)c2n1 | -8.37%
11 | Cc1cc(O)n2nc(NC(=O)C(C)Oc3ccccc3)nc2n1 (stereo not shown) | -3.08%
12 | CCOCCCNC(=O)c1cc2c(O)nc3ccccc3c2s1 | 2.9%
13 | Cc1c(C(=O)N2CCOCC2)oc2c1-c1nn(CC(=O)NCCCc3ccccc3)cc1CC2 | 0.335%
14 | CC(C)C[C@H](NC(=O)NCc1ccccc1)C(=O)N[C@@H](CCc1ccccc1)C(=O)CO | 0.744%
15 | CCOc1cc(C2C(C#N)=C(N)OC3=C2C(=O)CC(C)(C)C3)ccc1OC(F)F (stereo not shown) | -2.64%
16 | COc1cccc(NC(=O)CC2COc3ccccc3O2)c1 (stereo not shown) | 2.25%
17 | Cc1cccc(C)c1N1CCc2cnn(S(=O)(=O)c3ccccc3[N+](=O)[O-])c21 | 0.989%
18 | COc1ccc(-c2nc(CCNS(=O)(=O)c3ccc4c(c3)CCCC4)cs2)cc1OC | -0.72%
19 | NC1=NC(=O)/C(=C/c2ccc(Cl)cc2Cl)S1 | 10.4%
20 | CCS(=O)(=O)C1=NN2C(=N)/C(=C\c3cc(C)n(-c4ccc(F)cc4)c3C)C(=O)N=C2S1 | -3.35%
21 | Cc1nnc2c(NCC(C)c3ccccc3)nc3ccccc3n12 (stereo not shown) | 2.89%
22 | COc1ccc(Oc2ccc(N3C(=O)C4C5CCC(C5)C4C3=O)cc2)cc1 (stereo not shown) | -2.19%
23 | O=C(NCC1(c2ccccc2)CCOCC1)C1(c2ccccc2)CCOCC1 | -7%
24 | Nc1nonc1-c1nc2ccccc2n1CC(=O)NCc1ccc(F)cc1 | 0.596%
25 | Cc1cc(C)n(-c2nc3c(c(=O)[nH]c(=O)n3C)n2CCOc2ccccc2)n1 | 8.18%

Row | Structure (SMILES) | % Inhibition @ 10 uM
26 | COc1ccc(C(=O)NCCC2=CCCCC2)cc1 | -10.9%
27 | O=C(CC12CC3CC(C1)CC(CC(=O)N1CCCCC1)(C3)C2)N1CCCCC1 | 4.15%
28 | O=C(Cn1nc(C(F)(F)F)cc1C1CC1)Nc1ccc(F)cc1F | -6.67%
29 | CCS(=O)(=O)c1nc(S(=O)(=O)c2ccc(C)cc2)c(NCCc2ccccc2OC)s1 | -4.04%
30 | COc1cc(C2NC(=O)NC(c3ccccc3)=C2C(C)=O)c(Cl)cc1OCc1ccccc1 (stereo not shown) | 3.19%
31 | COCCNC(=O)COc1ccc(S(=O)(=O)N2CCCC2)cc1 | -5.56%
32 | CCOC(=O)C1C(=O)C=C(c2ccccc2)CC1c1ccccc1 (stereo not shown) | 0.634%
33 | Cc1onc(-c2ccccc2Cl)c1C(=O)N1CCN(c2ccc(F)cc2)CC1 | 1.8%
34 | O=C(NCCc1ccccc1)c1ccc(CS(=O)(=O)Cc2ccc(Cl)cc2)o1 | 0.387%
35 | CCOc1ccc(CNc2nn3nnnc3c3ccccc23)cc1OC | 2.02%
36 | COc1ccc(-c2nnc(-c3ccc(N(C)C)cc3)o2)cc1 | 7.37%
37 | C/C(=C\c1ccc(C)o1)C(=O)c1c(C)cc(C)nc1O | 6.91%
38 | CC(=O)CS(=O)(=O)c1ccc(Br)cc1 | 1.38%
39 | COc1cccc(-c2noc(COc3ccccc3)n2)c1 | -0.671%
40 | CCn1c2c(c(=N)c3c1CCC3)CCC2 | 4.01%
41 | Cc1cc(Cc2cc(C)c3nc(N)sc3c2)cc2sc(N)nc12 | 20.4%
42 | COc1ccc(OCCCn2cnc3ccccc3c2=O)cc1 | -0.641%
43 | CCc1ccc(CNC(=O)C2CCCN(c3nnc(-n4c(C)ccc4C)s3)C2)cc1 (stereo not shown) | -4.15%
44 | O=C(CN(Cc1ccc(Cl)cc1)S(=O)(=O)c1ccccc1)Nc1ccccc1 | -3.49%
45 | Nc1c(O)nc2ccc(O)c3c2c1-c1ccccc1C3=O | -2.2%
46 | CCN1CCC(NC2CCCCCC2)CC1 | 3.44%
47 | CCc1nnc(SCc2ccccn2)c2cc3sc(C)cc3n12 | -5.97%
48 | CCc1c(C(=O)NC2CCCc3ccccc32)[nH]c(C)c1C(C)=O (stereo not shown) | -3.09%
49 | CC1=NC(C)=C(C(=O)OC(C)C)C(c2cccs2)/C1=C(\O)OC(C)C (stereo not shown) | 13.6%

— paper PMC6919601, “Identification of Plasmodium dipeptidyl aminopeptidase allosteric inhibitors by high throughput screening” (PLoS ONE, 2019)
